Data published in PMC4336329 (PLoS ONE, 2015).
The whole screen tested about 310,000 compounds, of which about 2,200 (0.71%) showed an effect of 50% or more. The effect is printed as a negative number. The list shows a part of the results.

Target: human ether-à-go-go-related gene (hERG) potassium channel (human, UniProt Q12809)
Assay: primary screen, population patch clamp on CHO cells stably expressing hERG

Sequence of human ether-à-go-go-related gene (hERG) potassium channel (Q12809 whole entry, looked up): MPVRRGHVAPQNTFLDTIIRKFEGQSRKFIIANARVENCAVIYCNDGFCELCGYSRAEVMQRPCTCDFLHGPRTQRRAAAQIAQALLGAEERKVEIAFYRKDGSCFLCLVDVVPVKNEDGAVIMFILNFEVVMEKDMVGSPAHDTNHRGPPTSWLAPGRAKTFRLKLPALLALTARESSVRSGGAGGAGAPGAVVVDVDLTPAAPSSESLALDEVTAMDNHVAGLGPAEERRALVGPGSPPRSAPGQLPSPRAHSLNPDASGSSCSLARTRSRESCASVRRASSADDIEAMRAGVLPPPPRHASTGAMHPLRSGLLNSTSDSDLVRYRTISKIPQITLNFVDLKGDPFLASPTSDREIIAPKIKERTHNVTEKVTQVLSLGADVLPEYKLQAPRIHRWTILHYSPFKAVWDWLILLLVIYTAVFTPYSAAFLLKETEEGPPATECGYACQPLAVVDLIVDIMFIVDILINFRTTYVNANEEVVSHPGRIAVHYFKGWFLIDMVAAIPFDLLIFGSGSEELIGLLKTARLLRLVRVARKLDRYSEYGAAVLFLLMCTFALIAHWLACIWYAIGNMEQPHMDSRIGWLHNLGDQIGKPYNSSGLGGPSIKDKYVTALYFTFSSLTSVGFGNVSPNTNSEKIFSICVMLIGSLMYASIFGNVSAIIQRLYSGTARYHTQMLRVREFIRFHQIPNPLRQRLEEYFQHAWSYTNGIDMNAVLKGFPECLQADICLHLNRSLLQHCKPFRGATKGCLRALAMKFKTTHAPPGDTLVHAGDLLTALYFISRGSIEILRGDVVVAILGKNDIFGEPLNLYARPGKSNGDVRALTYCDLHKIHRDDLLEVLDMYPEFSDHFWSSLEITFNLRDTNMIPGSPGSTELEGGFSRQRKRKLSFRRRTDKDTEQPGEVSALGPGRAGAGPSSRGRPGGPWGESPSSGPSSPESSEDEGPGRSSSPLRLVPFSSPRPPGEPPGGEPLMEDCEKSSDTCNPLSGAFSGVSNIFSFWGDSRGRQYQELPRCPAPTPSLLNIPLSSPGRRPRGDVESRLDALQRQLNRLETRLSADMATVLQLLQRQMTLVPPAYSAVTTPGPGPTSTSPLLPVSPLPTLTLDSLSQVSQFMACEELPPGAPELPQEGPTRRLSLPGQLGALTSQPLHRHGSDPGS

| Compound | hERG current change (%, negative = inhibition) at 1uM [%] |
| --- | --- |
| CCOc1ccc(-c2nnc3ccc(SCC(=O)Nc4nc5ccc(C)cc5s4)nn23)cc1 | -6.96 |
| COc1ccc(NC(=O)COC(=O)c2cc(OC)c(OC)c(OC)c2)c([N+](=O)[O-])c1 | -6.12 |
| O=C(Nc1nnc(C2=COCCO2)o1)c1cccc(C(F)(F)F)c1 | 12.4 |
| COc1ccc(NCC(=O)Nc2ccc(C#N)cc2)cc1Cl | -4.32 |
| CC(C)(C)c1ccc(/C=C/C(=O)Nc2nncs2)cc1 | 15.7 |
| COc1ccc(S(=O)(=O)N(C)CC(=O)NCc2cccnc2)cc1OC | 11 |
| CCC(=O)Nc1ccc(-c2cc(-c3ccccc3)nc(-c3ccc(NC(=O)CC)cc3)n2)cc1 | 16.3 |
| CC1CCN(C(=O)CSc2nc3ccccc3c(=O)n2Cc2ccc3c(c2)OCO3)CC1 | 1.49 |
| Cc1cccc(NC(=O)CSc2nnc(-c3ccncc3)n2CC2CCCO2)c1 (stereo not drawn) | 7.59 |
| O=C(COC(=O)c1cncc(Br)c1)NC1CCCCC1 | 14.2 |
| COc1ccc(-n2ncc(S(=O)(=O)c3ccccc3)c2-c2ccc(Cl)cc2)cc1 | 11.4 |
| CCN(CC)CCN1C(=O)C(=O)/C(=C(/O)c2ccc(OC(C)C)cc2)C1c1cccs1 (stereo not drawn) | 11.6 |
| O=C(COC(=O)[C@@H]1CC(O)CN1S(=O)(=O)c1ccc2c(c1)OCCO2)Nc1ccccc1F (stereo partly drawn) | 15.5 |
| CCOC(=O)c1[nH]c2c(c1C)C(=O)CC(c1ccc(OCC)c(OC)c1)C2 (stereo not drawn) | -5.85 |
| CN(C)S(=O)(=O)c1ccc(N2CCCC2)c(C(=O)N2CCC(C(N)=O)CC2)c1 | 15.8 |
| COC(=O)[C@H](CCSC)NC(=O)N1CCN(Cc2ccccc2)CC1 | 5.58 |
| CCCc1nc2ccccc2c2nc(N)nn12 | 9.02 |
| O=C(c1ccccc1)N1CCN(C(=O)c2nn3c(C(F)(F)F)cc(-c4ccccc4)nc3c2Br)CC1 | 17.3 |
| Cn1nc(C(=O)NCCCN2CCCCC2)c2c1-c1ccccc1SC2 | -24.8 |
| CC1CCCN(S(=O)(=O)c2ccc(S(=O)(=O)N3CCC4(CC3)OCCO4)cc2)C1 (stereo not drawn) | 7.23 |
| COC(=O)C(Cc1ccccc1)NC(=O)CCNC(=O)c1ccc(Br)cc1 (stereo not drawn) | -28.3 |
| CS(=O)(=O)N1CCc2cc(C(=O)O)ccc21 | 10.8 |

| Compound | hERG current change (%, negative = inhibition) at 1uM [%] |
| --- | --- |
| N#CC1(NC(=O)CN2C(=O)NC(c3ccccc3)(c3ccccc3)C2=O)CCCC1 | -23.3 |
| Cc1ccc(N(C(=O)CNC(=O)c2ccco2)C(C(=O)NC2CCCC2)c2ccncc2)cc1C (stereo not drawn) | 9.64 |
| CCn1c(SCC(=O)NNC(=O)Cc2ccccc2)nnc1-c1ccncc1 | 9.9 |
| COC(=O)CSc1nc2ccc(C)cc2cc1C#N | 13.6 |
| CC(=O)N1CCN(C(=O)COC(=O)c2oc3ccccc3c2C)CC1 | 13.8 |
| O=C(N(c1ccccc1)c1ccccc1)N(c1ccccc1)c1ccccc1 | 0.814 |
| O=C(CCSc1nnc2scc(-c3ccccc3)n12)NCc1ccc2c(c1)OCO2 | 6.52 |
| O=C(O)COc1ccccc1/C=N/NC(=O)c1cccc(S(=O)(=O)Nc2cccc(Cl)c2)c1 | 15.6 |
| COC(=O)C1=NNC2(c3ccc(C)cc3)C(=O)N(c3ccc(C)cc3)C(=O)C12 (stereo not drawn) | 13.2 |
| O=C(Nc1c(C(=O)O)oc2ccc(Br)cc12)c1ccccc1 | 2.62 |
| COc1ccc(NC(c2ccccc2)P(=O)(Oc2ccccc2)Oc2ccccc2)cc1 (stereo not drawn) | 5.63 |
| CCC1CCC2(CC1)NNC(=S)NN2 | 1.69 |
| CCOc1nc(-c2ccccc2)ccc1-c1noc(COc2ccccc2)n1 | -11.8 |
| CC1C(c2ccccc2)N(C)CCC12NC(=O)NC2=O (stereo not drawn) | 2.73 |
| C=CCn1c(-c2ccccc2)c[nH]c1=S | 9.5 |
| Cc1cccc(C(=O)OCC(=O)Nc2ccc(F)cc2)c1 | 15.1 |
| COc1nc(Nc2ccccc2)nc(OC)n1 | 13.6 |
| Clc1ccc(-n2cccc2CN2CCc3c([nH]c4ccccc34)C2c2ccccn2)nc1 (stereo not drawn) | -2.31 |
| Cc1ccc(S(=O)(=O)N(C#N)c2nc(C)cc(C)n2)cc1 | 2.28 |
| Cn1c(=O)c2c(ncn2CCC(=O)N/N=C/c2ccccc2)n(C)c1=O | 8.18 |
| C=CCNC(=O)N1CCc2[nH]c3ccc(F)cc3c2C1 | 13.4 |
| O=C(OCc1ccc([N+](=O)[O-])cc1)c1cc([N+](=O)[O-])ccc1N1CCOCC1 | -67.2 |

| Compound | hERG current change (%, negative = inhibition) at 1uM [%] |
| --- | --- |
| CC(C)(C)C(=O)O/N=C(\N)c1c(Cl)cccc1Cl | 7.42 |
| O=C(CSc1nnc(Cc2cc(=O)[nH]c(=O)[nH]2)n1-c1ccccc1)N1CCCCC1 | 15.3 |
| O=S(=O)(c1ccc(F)cc1)N1CCN(C(=S)NC2CC2)CC1 | 6.29 |
| Fc1ccccc1-c1nc2ccccc2[nH]1 | 19.9 |
| C[C@@H]1C(=O)O[C@H]2CC34[C@H]5C[C@@H](C(C)(C)C)[C@]36[C@@H](OC(=O)[C@@H]6O)O[C@@]4(C(=O)O5)[C@]21O (stereo partly drawn) | 9.2 |
| CCOC(=O)CC1CCCCN1C(=O)c1cc(COc2cccc3cnccc23)on1 (stereo not drawn) | 10.1 |
| COc1ccc2sc(N3C(=O)C4CC=C(C)CC4C3=O)nc2c1 (stereo not drawn) | -0.875 |
| Cc1ccc(OCC(=O)NNC(=O)C2CCN(c3nccc(C)n3)CC2)cc1 | -0.0861 |
| O=C(O)c1cc2nccc(-c3ccc(F)cc3)n2n1 | 19.4 |
| Cc1cc(C)n2cc(CSc3nnc(N)s3)nc2n1 | 3.93 |
| O=c1cc(N2CCC3(CC2)OCCO3)[nH]c(=O)n1C1CCCCC1 | 12.3 |
| O=C(O)c1ccc(Cl)c(S(=O)(=O)N(Cc2ccccc2)c2ccc(F)cc2)c1 | 10.6 |
| COCCCn1c2nc3ccccc3nc2c2c(=O)n(-c3ccccc3OC)c(C)nc21 | 11.5 |
| COc1cc(C2c3c(-c4ccccc4O)n[nH]c3C(=O)N2Cc2ccco2)cc(OC)c1OC (stereo not drawn) | 4.86 |
| CCC(Oc1ccccc1)C(=O)Nc1nc2ccccc2[nH]1 (stereo not drawn) | 6.16 |
| Cc1cc(NC(=O)c2cccnc2)ccc1NC(=O)c1cc2ccccc2o1 | 15 |
| COc1cc(CNn2nnnc2N)cc(Br)c1OCc1c(Cl)cccc1Cl | 14.2 |
| Nc1ccn(CC(=O)N2CCN(c3ccccn3)CC2)c(=O)n1 | 18.5 |
| COC(=O)c1ccc(CN(C(=O)N2CCN(C)CC2)S(=O)(=O)c2ccc(C)cc2)cc1 | 17.1 |
| O=C(CNC(=O)c1ccc(Br)cc1)N/N=C/c1ccc[nH]1 | 25.5 |
| COc1ccc2c(c1)cc(C)c1nnc(SCC(=O)N3CCN(C(=O)c4ccco4)CC3)n12 | 4.47 |
| CCOC(=O)c1ccc(N2C(=O)C3CC=C(C)CC3C2=O)cc1 (stereo not drawn) | 8.57 |

| Compound | hERG current change (%, negative = inhibition) at 1uM [%] |
| --- | --- |
| COc1cc2c3c(c1)c(C1=NC(=S)NC1=O)c(O)n3C(C)(C)C=C2C | 11.1 |
| CCOc1cc(C(N)=O)cc(Br)c1OC | 8.22 |
| CC(C)(C)N1C(=O)NC(=O)/C(=C\c2ccc3c(c2)CCN3CCCCl)C1=O | 10.7 |
| CSc1n[nH]c(=S)n1N | 17.3 |
| O=C(/C=C/c1ccco1)NC(=S)Nc1ccccc1N1CCCC1 | 1.36 |
| O=C(c1ccc(Cl)cc1Cl)N1CCN(c2ccc(N3CCOCC3)nn2)CC1 | 8.78 |
| O=c1[nH]c(CCl)nc2cc(-c3ccc(F)cc3)sc12 | 13.9 |
| COc1ccccc1CCc1nnc(CCC(=O)NCCOc2cccnc2)o1 | 12.7 |
| CC1CC(C)CN(S(=O)(=O)c2cc3c4c(c2)CCN4C(=O)CC3)C1 (stereo not drawn) | 5.83 |
| Cc1ccc2nc(N3C(=O)C(O)=C(C(=O)c4ccco4)C3c3ccc(O)cc3)sc2c1.O=C(O)C(=O)O (stereo not drawn) | 12.5 |
| CCOc1ccc(-c2nc3n(c(=O)c2C#N)CCCS3)cc1 | 9.07 |
| O=C(c1cc2ccccc2o1)N1CCN(c2cccc(Cl)c2)CC1 | -1.24 |
| COc1cc(NC(=O)CN2C(=O)NC(CC(C)C)C2=O)cc(OC)c1OC (stereo not drawn) | 6.25 |
| O=C(C1CC1c1ccccc1)N1CCOCC1 (stereo not drawn) | 35 |
| COCC(=O)Nc1ccc(Br)c(C)c1 | 10 |
| COc1cc(OC)c(S(=O)(=O)N2CCCCC2)cc1S(=O)(=O)N1CCCCC1 | 7.92 |
| COc1cc(Cn2c(N)c(C(=O)NCc3ccco3)c3nc4ccccc4nc32)cc(OC)c1OC | -11.3 |
| CN1CCN(c2nc(-c3ccccc3O)nc3ccccc23)CC1 | 11.3 |
| Cc1ccc(S(=O)(=O)N(C)C)cc1NC(=O)CSc1nnc(C2CC2)n1C1CC1 | -4.46 |
| Nc1nnnn1CC(=O)OCc1cccc(Br)c1 | -2.49 |
| CCOc1cc(/C=N/N2CCN(Cc3ccccc3)CC2)ccc1O | -1.82 |
